According to the RNAGym collection of RNA variant scans (doi:10.7554/elife.90254):
The source gives no read counts; variants with many changes may rest on few reads.

B1: LINE1-mini (parent)
chain: GGCAGAGCUCAACACAGCGUGGCAAAGUGGCUGUGGCUAGACUGCC

Variants of: B1
Assay: self-cleavage, relative activity (ratio to wild type); higher = more cleavage; in vitro, sequencing; the parent is a self-cleaving ribozyme
For G1A G29A C37G, the self-cleavage was 0.02. C3A C13G G40A gave a self-cleavage of 0.13. G7A G17A G27C gave a self-cleavage of 0.12. G2A C18G G22U gave a self-cleavage of 0.81. Variant G21A G22A A26G A41U has a self-cleavage of 0.68. In the case of G5A C10A A26C A39G C45U, the self-cleavage is reported as 0.01. For A14U U20A G21A C31U G40A, the self-cleavage was 0.08. For G2U A12C G27U, the self-cleavage was 0. For G5A G22A C23G U32C, the self-cleavage was 0.03. G5C C15A G17A G36U A41U showed a self-cleavage of 0.05. Variant A6C C13G U38A C42G has a self-cleavage of 0.01. Variant G1C C10A C15U A25G G30U has a self-cleavage of 0. G5A G7C G19U A26U gave a self-cleavage of 0.13. For C3A C18G U43A, the self-cleavage was 0.05. Variant G2C C13U C23A A25U G27U U28G G30A G33U has a self-cleavage of 0.05. With C23U U28G G30A C45G the self-cleavage was 0.09. G1A C15U U20C U34G showed a self-cleavage of 0.1. Work on G27A G30A G44U yielded a self-cleavage of 0.13. Variant C31U G33U C37A has a self-cleavage of 0.12. C13A G19U U34C G36A A39C C42U showed a self-cleavage of 0.02. A11C C23U G27C gave a self-cleavage of 0.05. Variant A14C C15G G22U has a self-cleavage of 0.05. G5A A14C A16C C37G gave a self-cleavage of 0.25. Work on A6C U28A G30U G33A G44A yielded a self-cleavage of 0.02. For G7C G17A U28C U38C, the self-cleavage was 0.05. In the case of A12G A26G U28G, the self-cleavage is reported as 0.01. For G7A C15U G27C C31G, the self-cleavage was 0.15. For A4U G5U U9A G30A A39C G40U C42A, the self-cleavage was 0.19. A4U C15U C31U showed a self-cleavage of 0.04. Variant C15U G19U G35A has a self-cleavage of 0.13. A11U G36A C37A gave a self-cleavage of 0.05. For C31U G36U U38G, the self-cleavage was 0.02. Work on A4G A14G A16G G30A C42A yielded a self-cleavage of 0.13. Work on G2A G7A C18G G22A G40A C45A C46G yielded a self-cleavage of 0.28. G5U A25U G27C C42U gave a self-cleavage of 0.01. C8A G29A C45U gave a self-cleavage of 0.24. Variant C3G A4G G36C U43G has a self-cleavage of 0. With G7A C8G G36C the self-cleavage was 0.07. Variant C15G G27A U34C has a self-cleavage of 0.02. With C8A U9C C23A G27C the self-cleavage was 0.12. With G2U G7A A24C U32A the self-cleavage was 0.01. C3G A4G G33U C46A gave a self-cleavage of 0.13. C10A A12C A16C A39U gave a self-cleavage of 0.01. In the case of A6C G17U C37U A39C, the self-cleavage is reported as 0.05. G7C G19A C23A U34A showed a self-cleavage of 0.01. For C3U A16G C31U, the self-cleavage was 0.04. A12C A25G U32C gave a self-cleavage of 0.03. Work on C8A C13U A14U yielded a self-cleavage of 0.4. C8A G33U G40U gave a self-cleavage of 0.05. With G7A C8U G27U G36U U38C the self-cleavage was 0.06. Work on G19A C42U C45U yielded a self-cleavage of 0.53. With C8U G19C A26U C31U G33U U34C the self-cleavage was 0.26. For C10U G17A U20G G30A G36C G40U U43C, the self-cleavage was 0.02. In the case of C8A U34C C46A, the self-cleavage is reported as 0.03. G2C U20A G27A showed a self-cleavage of 0. For G30A G36A U43A, the self-cleavage was 1.63. For A6U U9C A24C U32G, the self-cleavage was 0.01. G1C A6G G7U showed a self-cleavage of 0.02. Variant C3G G17U G19C G21U A24C G35C has a self-cleavage of 0.19. C3U A6G C10A C15U G27A gave a self-cleavage of 0.03. For A11C A14U G33U, the self-cleavage was 0.02. With G2A U28A U43G the self-cleavage was 0.09. C8A C10A G17C A24C G29C G36A gave a self-cleavage of 0.02. In the case of G1C U34A G40C, the self-cleavage is reported as 0.01. Work on C18G U28A U32G A39U yielded a self-cleavage of 0.05. With U28A U34C A39G the self-cleavage was 0.01. With C13U C37A G44A the self-cleavage was 0.02. With G1A C8G U34G the self-cleavage was 0.04. G2U G5U G22C G27U U34A gave a self-cleavage of 0.02. C8U A12U A24U G30U showed a self-cleavage of 0.46. A4C C13A U38A gave a self-cleavage of 0.03. C8A A12G G40U showed a self-cleavage of 0.06. In the case of C8G A26U U32G G36U C37A G40U, the self-cleavage is reported as 0.15. Work on C3A G29C C31A G36U yielded a self-cleavage of 1.07. A12C G17U U32A C37U gave a self-cleavage of 0.02. G7U U20A A26G G40C gave a self-cleavage of 0.07. A4U U28C U32C showed a self-cleavage of 0.03. In the case of G5C G19C G40C, the self-cleavage is reported as 0.07. A6U C15A A16C C46A gave a self-cleavage of 0.02. Work on G7C G19C G21A C23G C42U G44U yielded a self-cleavage of 0.07. For G2C C31G C46A, the self-cleavage was 0.07. Variant A26C G27C U38G has a self-cleavage of 0.01. In the case of C13G G35C C37G A39G, the self-cleavage is reported as 0.01. Variant C8A U20A A24G C37A has a self-cleavage of 0.02. C15U G21A A25U C37U gave a self-cleavage of 0.12. C3A G21U U38A showed a self-cleavage of 0.26. In the case of C31G A39C G40U, the self-cleavage is reported as 0.01. With A14U G19U G30A U32G the self-cleavage was 0.11. For C8U C13G A25G, the self-cleavage was 0.2. A4G C10U G33U C46G showed a self-cleavage of 0.02. G5U G17U G19A G21C gave a self-cleavage of 0. G21U G27A U28G G40A gave a self-cleavage of 0.07. Variant U9A A11U A16G G40C has a self-cleavage of 0. For G7A G21U G29C A39G, the self-cleavage was 0.01. Work on C10U U20A A24U U38C A41C U43A yielded a self-cleavage of 0.01. Work on G2U C13G G30A yielded a self-cleavage of 0.05. A12C G36A U38C G40U showed a self-cleavage of 0.11. In the case of G5U U32A A39G, the self-cleavage is reported as 0.02. With C10U G22A G30A G35A the self-cleavage was 0.06. With U9A A11C G29U C46G the self-cleavage was 0.01. G2C G27A G30U G44U C45U C46U gave a self-cleavage of 0.04. Variant A4C C10U G22U G30A G35U G40U has a self-cleavage of 0.03. Work on A4U A11U C45U yielded a self-cleavage of 0.01. In the case of G17C G21U G22A C45G, the self-cleavage is reported as 0.05. C13U G21C G33C showed a self-cleavage of 0.01. For C10U C13G G17C G27U U38C, the self-cleavage was 0.01. With A24C G33U C42A the self-cleavage was 0.03. With G2A G5A C13A U28G U43A the self-cleavage was 0.35. In the case of U34C G35U A41U, the self-cleavage is reported as 0.12. In the case of C15A C18U C37G, the self-cleavage is reported as 0. Variant G2U U34A G36C has a self-cleavage of 0.01. Work on C3G A4C U28G yielded a self-cleavage of 0.43. For G17C G29A C45G, the self-cleavage was 0.08. C8A A11U C18A A26U U38G A39U gave a self-cleavage of 0. Variant U9G C10A G17A C18A G22A C45A has a self-cleavage of 0.01. Work on G1A A6C C18A C46A yielded a self-cleavage of 0.27. In the case of C23A A24C C31A, the self-cleavage is reported as 0.64. In the case of C3U A41U C46U, the self-cleavage is reported as 0.59. For A11G A12U G36A C45A, the self-cleavage was 0. Variant G1A G2C A14U G17U C18U G30A U32C has a self-cleavage of 0.02. G2C G33U A39G gave a self-cleavage of 0.02. A4C G7A C13G C31A gave a self-cleavage of 0.11. With A6C C15A U20G G27U C42G the self-cleavage was 0.05. Work on C8G C15A G21C G33A A41G yielded a self-cleavage of 0.04. Work on C8A C13A C15U U20C yielded a self-cleavage of 0.33. G5A U9A C23A A24G A26G G44U showed a self-cleavage of 0.02. With G1A G17U G30U the self-cleavage was 0.08. With C8G U28C G30C U38G U43C the self-cleavage was 0.04. In the case of G22U C23G G29A A39U, the self-cleavage is reported as 0.28. For G2U C18U G21C U38A G44U, the self-cleavage was 0.05. G2A C8G A12U G27C U43A C46A gave a self-cleavage of 0.04. Work on A6U C8A U9C C18G C46U yielded a self-cleavage of 0.25. With G22A A39G C45U the self-cleavage was 0.08. With C3A G22C G30A U43G G44C C45U the self-cleavage was 0.04. G5U C18U A26U G27U showed a self-cleavage of 0.14. G1A A16U C18A G35U gave a self-cleavage of 0.06. Work on G7A C8U C37A G40U A41C yielded a self-cleavage of 0.05. Work on A16C G40U A41G C46G yielded a self-cleavage of 0. G29C G40A U43C gave a self-cleavage of 0.02. C18G G21U U32G gave a self-cleavage of 0.17. Work on G1C G7U G19U G40C yielded a self-cleavage of 0.04. G7A C31G U43A gave a self-cleavage of 0.09. C23G C37G C45A gave a self-cleavage of 0.01. In the case of G5A G7C A24U, the self-cleavage is reported as 0.07. Work on G5C A14U G17U yielded a self-cleavage of 0.06. A12G C13U A26U C46G gave a self-cleavage of 0.01. A4G U9A C13A G19U C23U G27C showed a self-cleavage of 0.28. Work on C13A C18G A25C G30C C37A yielded a self-cleavage of 0.02. G5U G33U C37A showed a self-cleavage of 0.1. A16G A26G G36A C46U gave a self-cleavage of 0.03. In the case of G2C U20C C31U, the self-cleavage is reported as 0.04. G1C A25U G29A C46U gave a self-cleavage of 0.12. In the case of A4U G7C U28C C45A, the self-cleavage is reported as 0.08. G5U G40U C45G showed a self-cleavage of 0.02. In the case of A11C G17A G35C, the self-cleavage is reported as 0.01. G1U G5U G27A U38C C42G gave a self-cleavage of 0.13. In the case of A6G G7A G27A, the self-cleavage is reported as 0.05. In the case of C18A U32G G44U C46A, the self-cleavage is reported as 0.02. With A16G A25U G27U the self-cleavage was 1.96. A14G C23A G35C G44U gave a self-cleavage of 0.06. With C10A A14C G17A the self-cleavage was 0.04. With G5A C37U C42U U43A the self-cleavage was 0.02. Variant G1A C10A C13U G33C has a self-cleavage of 0.02. A6C C15A G30U C45G showed a self-cleavage of 0.01. With G7U G17U G22A the self-cleavage was 0.47. In the case of C8A G17A G19A U43A, the self-cleavage is reported as 0.28. In the case of C10G C13A U43A, the self-cleavage is reported as 0.02.
